# Test results published in PubChem BioAssay AID1768 (National Center for Advancing Translational Sciences (NCATS), 2009).
# Among all 270,000 compounds or so, about 620 (0.23%) were called active. Inconclusive means that the source gave no clear call. Such entries were picked first, then a sample of the others. Calls follow the shape of the dose curve; as a rule, active = well fitted inhibition curve with a large enough effect in the polarisation, with a control signal flat (not every such curve was filed as active); inconclusive = small, poorly fitted or top-dose-only effect, or effect the other way, or a change in a side signal; inactive = no such curve, though single readings can be large or run the other way; the % refers to the polarisation. Potencies of inconclusive entries are doubtful fits and often do not repeat. “Side channel” marks fits to a control or component signal instead of the main read-out.
# Target: Menin (Homo sapiens) (UniProt O00255)
# Assay: qHTS Assay for Inhibitors Targeting the Menin-MLL Interaction in MLL Related Leukemias: Competition With Texas Red Labeled MLL-derived Mutant Peptide; as to FP activity change, negative = inhibition: % of control where 0% means no effect
# Details: fluorescence polarization; FP activity change, negative = inhibition: at 61.6 µM (top of the series)
# Potency is read from the fitted curve at half-maximal effect; tags tell the direction and shape of the fitted curve or compound fluorescence and quenching.
# UniProt O00255, sequence (O00255 whole entry, looked up): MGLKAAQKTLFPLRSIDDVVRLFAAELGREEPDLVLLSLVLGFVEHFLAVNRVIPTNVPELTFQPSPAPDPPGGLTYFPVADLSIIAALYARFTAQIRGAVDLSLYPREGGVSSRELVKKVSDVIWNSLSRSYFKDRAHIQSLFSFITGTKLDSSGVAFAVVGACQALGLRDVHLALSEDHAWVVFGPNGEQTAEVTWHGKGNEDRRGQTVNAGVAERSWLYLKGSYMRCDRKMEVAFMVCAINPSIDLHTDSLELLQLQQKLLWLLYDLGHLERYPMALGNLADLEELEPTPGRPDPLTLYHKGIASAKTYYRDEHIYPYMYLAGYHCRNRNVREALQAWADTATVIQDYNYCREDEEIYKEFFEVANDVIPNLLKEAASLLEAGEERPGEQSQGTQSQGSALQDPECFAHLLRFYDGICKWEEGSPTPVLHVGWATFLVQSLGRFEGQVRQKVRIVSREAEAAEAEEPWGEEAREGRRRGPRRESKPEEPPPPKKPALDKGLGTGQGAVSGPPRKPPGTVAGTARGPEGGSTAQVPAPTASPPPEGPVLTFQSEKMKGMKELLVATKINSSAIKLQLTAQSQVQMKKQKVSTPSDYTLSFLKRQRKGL
SMILES,Potency,"FP activity change, negative = inhibition"
COc1cccc(-c2cc(C(=O)N3CCc4ccccc4C3)[nH]n2)c1,"inconclusive: 20 µM [inhibitor, partial curve]",–
COc1cccc(C(=O)C2CCCN(C(=O)c3ccccn3)C2)c1 (centres undefined),"inconclusive: 7.94 µM [quencher, side channel, partial curve]",–
C#CCOCCOCCOCCNc1nc(N2CCN(C(=O)C(Cc3cc4ccccc4[nH]3)n3cc(C(N)Cc4ccc(O)cc4)nn3)CC2)nc(N2CCN(C(=O)C(Cc3cc4ccccc4[nH]3)n3cc(C(N)Cc4ccc(O)cc4)nn3)CC2)n1 (centres undefined),"inconclusive: 0.891 µM [fluorescent, side channel, full curve]",–
COc1ccc(C2c3ccc4ccccc4c3Oc3ncn(CCO)c(=N)c32)cc1OC (centres undefined),"inconclusive: 2.51 µM [fluorescent, side channel, full curve]",–
Cc1ccc(C(=O)N/N=C\c2ccc(OC(=O)c3cccc(F)c3)cc2)cn1,"inconclusive: 31.6 µM [fluorescent, side channel, single point]",–
O=C(Nc1nccs1)C1CCN(S(=O)(=O)c2cnc[nH]2)CC1,"inconclusive: 2 µM [inhibitor, partial curve]",–
CCOC(=O)c1sc(NC(=O)CC(C)c2ccccc2)nc1C (centres undefined),"inconclusive: 39.8 µM [fluorescent, side channel, single point]",–
CCCC(=O)N1CCN(c2nc(CC(C)C)c3c(c2C#N)CCC3)CC1,"inconclusive: 3.98 µM [inhibitor, full curve, poor fit]",–
CCOc1ccc2nc(NC3=NC(C)(C)C=C(C)N3)nc(C)c2c1,"inconclusive: 6.31 µM [fluorescent, side channel, partial curve]",–
CSc1ncc(Cl)c(C(=O)Nc2nnc(SC/C=C/c3ccccc3)s2)n1,"inconclusive: 5.62 µM [quencher, side channel, full curve]",–
Cc1ccc(-c2csc(Cc3nc(-c4cc5ccccc5oc4=O)cs3)n2)cc1,"inconclusive: 11.2 µM [quencher, side channel, partial curve]",–
NCC12CC3CC(C1)CC(c1ccc(Br)cc1)(C3)C2,"inconclusive: 12.6 µM [fluorescent, side channel, partial curve]",–
CN(C)c1nnnn1-c1ccc(Oc2ncc(C(F)(F)F)cc2Cl)cc1,"inconclusive: 10 µM [fluorescent, side channel, partial curve]",–
COC(=O)c1cc(-c2ccccc2)sc1N,"inconclusive: 28.2 µM [quencher, side channel, single point]",–
CC(=O)c1c(C)[nH]c(C(=O)Nc2ccc(C)cc2Br)c1C,"inconclusive: 31.6 µM [inhibitor, single point]",–
COC(=O)c1ccc(C2N=C(c3cccs3)CC(c3ccccc3O)N2)cc1 (centres undefined),"inconclusive: 12.6 µM [quencher, side channel, partial curve]",–
CCCCCCOC(=O)C(C#N)c1nc2ccccc2nc1N1CCN(CC)CC1 (centres undefined),"inconclusive: 3.16 µM [fluorescent, side channel, full curve]",–
COc1ccc(CCC(C)Nc2ccc(F)cc2)cc1 (centres undefined),"inconclusive: 39.8 µM [inhibitor, single point]",–
CCCn1c(=O)c(C(=O)Nc2cc(C)ccn2)c(O)c2ccccc21,"inconclusive: 10 µM [inhibitor, partial curve]",–
COC(=O)CC[C@@H](C)[C@H]1CC[C@H]2[C@@H]3CC[C@@H]4C[C@H](O)CC[C@]4(C)[C@H]3C[C@H](O)[C@]12C,"inconclusive: 14.1 µM [fluorescent, side channel, partial curve]",–
CCOc1ccc(C(=O)Nc2ccc(N3CCN(S(C)(=O)=O)CC3)cc2)cc1[N+](=O)[O-],"inconclusive: 11.2 µM [quencher, side channel, partial curve]",–
COc1cccc(-c2cc(NCCc3c[nH]c4ccc(OC)cc34)ncn2)c1,"inconclusive: 14.1 µM [quencher, side channel, partial curve]",–
CC(=O)c1cccc(NC(=O)CN2C(=S)NC(C)(C)CC2C)c1 (centres undefined),"inconclusive: 14.1 µM [inhibitor, single point]",–
Cc1c[nH]c2cccc(OCC(CNC(C)(C)C)OC(=O)c3ccccc3)c12 (centres undefined),"inconclusive: 10 µM [inhibitor, partial curve]",–
O=C(Cc1ccccc1)N/N=C/c1ccc(-c2ccc([N+](=O)[O-])cc2)o1,"inconclusive: 25.1 µM [quencher, side channel, partial curve]",–
CC1CCN(S(=O)(=O)c2ccc(-c3nnc(SCc4cccnc4)o3)cc2)CC1,"inconclusive: 25.1 µM [fluorescent, side channel, single point]",–
COC(=O)C1=CO[C@@H](C)[C@@H]2CN3CCc4c([nH]c5ccccc45)[C@@H]3C[C@H]12,–,inactive: -13%

SMILES,Potency,"FP activity change, negative = inhibition"
Nc1c(S(=O)(=O)c2cccc(Cl)c2)c2nc3ccccc3nc2n1/N=C/c1ccc(O)c(O)c1,"inconclusive: 7.08 µM [quencher, partial curve]",–
C=CCn1c(=O)c2ccc(C(=O)NCc3ccccc3)cc2n(Cc2cccc(Cl)c2)c1=O,–,inactive: 4.61%
O=[N+]([O-])c1nn(-c2ccc(Cl)cc2)n(O)c1=NCc1ccccc1,"inconclusive: 39.8 µM [quencher, side channel, single point]",–
Cc1cccc2cc3c(N)c(C#N)sc3nc12,"inconclusive: 17.8 µM [quencher, side channel, partial curve]",–
NS(=O)(=O)c1cccc(NC(=O)CCS(=O)(=O)c2ccc(Cl)cc2)c1,"inconclusive: 3.16 µM [inhibitor, full curve, poor fit]",–
NC(=O)c1ccc(-n2nnnc2SCC(=O)Nc2ccccc2-c2ccccc2)cc1,"inconclusive: 39.8 µM [quencher, side channel, single point]",–
O=C(COc1ccccc1)Nc1cccc(-c2nc3cc4ccccc4cc3[nH]2)c1,"inconclusive: 3.55 µM [quencher, side channel, partial curve]",–
Cc1ccc(OC(C)C(=O)N=Nc2c(O)[nH]c3ccc([N+](=O)[O-])cc23)cc1 (centres undefined),"inconclusive: 31.6 µM [quencher, side channel, partial curve]",–
CC(=O)Nc1ccc(OS(=O)(=O)c2ccc(C(C)(C)C)cc2)cc1,"inconclusive: 31.6 µM [quencher, side channel, single point]",–
CN1CCN(c2nc3cc(C(F)(F)F)ccc3n3cccc23)CC1,"inconclusive: 17.8 µM [fluorescent, side channel, partial curve]",–
CCCC(=NC(C)CC)C1=C(O)CC(c2ccccc2)CC1=O (centres undefined),"inconclusive: 10 µM [fluorescent, partial curve]",–
COc1ccc(C(=O)Nc2ccc(-c3nnn(CC(=O)N4CCN(C(=O)c5ccco5)CC4)n3)cc2)cc1,"inconclusive: 39.8 µM [fluorescent, single point]",–
COc1cc(CN2CCC(C(=O)NCCC(C)C)CC2)ccc1OCc1ccccc1,"inconclusive: 7.08 µM [fluorescent, side channel, partial curve]",–
C=COCCNC(=S)Nc1ccccc1,"inconclusive: 31.6 µM [inhibitor, single point]",–
Cc1sc(N(C(=O)CCc2ccccc2)c2ccc(C(=O)O)cc2)nc1-c1ccccc1,"inconclusive: 11.2 µM [quencher, side channel, partial curve]",–
CN(Cc1cccc(Cl)c1Cl)C(=O)c1cccc(S(=O)(=O)N2CCN(Cc3ccccc3)CC2)c1,"inconclusive: 3.16 µM [fluorescent, side channel, partial curve]",–
COc1ccc([C@]23Cc4cc(OC)c(OC)cc4C(O2)C2=C(CC(C)(C)CC2=O)O3)cc1,–,inactive: 3.87% [at 11.7 µM]
CCOc1cccc(NC(=O)C2CC(=O)N(C)C(=Nc3ccccc3)S2)c1 (centres undefined),"inconclusive: 17.8 µM [quencher, side channel, single point]",–
O=C(CSc1nc2[nH]c(=O)cc(O)c2s1)Nc1cc(Cl)cc(Cl)c1,"inconclusive: 14.1 µM [quencher, side channel, partial curve]",–
O=C1CNC(=O)/C1=C/c1ccc(O)cc1,"inconclusive: 14.1 µM [inhibitor, partial curve]",–
CC1CCCN(c2ccc(C(=O)Nc3cccnc3)cc2[N+](=O)[O-])C1 (centres undefined),–,inactive: 22.7%
Cc1cccc(C2=N[C@@H](Cc3ccccc3)CO2)c1,–,inactive: 4.22% [at 94.6 µM]
CC1CCCCN1C(=O)c1ccc(OC2CCN(S(=O)(=O)N(C)C)CC2)cc1 (centres undefined),"inconclusive: 39.8 µM [fluorescent, side channel, partial curve]",–
Fc1ccc(-n2cc(CNCCc3ccccn3)c(-c3ccccc3Cl)n2)cc1,"inconclusive: 14.1 µM [fluorescent, side channel, partial curve]",–
O=C(COC(=O)c1n[nH]c2ccccc12)Nc1ccc(Cl)cc1[N+](=O)[O-],"inconclusive: 35.5 µM [quencher, single point]",–
Cc1cc(C)cc(Oc2c(C(F)(F)F)oc3cc(OCC(=O)O)ccc3c2=O)c1,"inconclusive: 31.6 µM [quencher, side channel, partial curve]",–
COC(=O)Cc1c(CSc2ccccc2)oc2ccc(O)c(CN(C)C)c12,"inconclusive: 2.82 µM [inhibitor, full curve]",–
